# Source: the supplement of paper PMC12632987
# In all, about 4,500 sequences were measured (“median log2 fold change of GCK-ALFA target abundance (FLAG IP / Myc IP barcode read proportion)”: median about 0.078, lowest 2% from about -0.6 on). This is one part of the list.
# B1: GBRAP_14_3860 (protein)
# chain: VEALVKAVERTAESTKELIAEIAPEHAEEIKAKVEELAKEIIEKIKKENLNIEEVEELVDEAAEKLGAYMREKGYLSDTEIAAFKAHLLSEFLLELEEIE
# B2: GBRAP_160_4137 (protein)
# chain: KEEIEKLIKEIKEIGEEALEMIEGETPENAKVIARVAFGDIVMLVETSEAVSEETKDKVGKVADEAEAKLKANPDLTVEEIKALLKEATEKVIEILEKEK
# B3: GBRAP_160_4138 (protein)
# chain: KEELEKLIKEIRETAEEALKMIEGETPENAKVIARVALGDMVMLVESNEAVSEEVEEKVGEVARKAEEELDENPDLTVEEIKELLRRAEEEVVKIIEEEK
# B4: GBRAP_80_6762 (protein)
# chain: MMAELEAALAELAKLLPELAEEARATFAAALAAGVDVEDLLRLAKALVELAKLDKEKAREILTRFIERSREALAAGDLEDVRGEILDAENDALLAVEELE
# B5: GBRAP_52_6321 (protein)
# chain: MEEELEKKAEELHEAVLAGDEEKFIELVREIAENYSEEEVLKILKRAIELMAADPRLTDDQIADATDKAVDVLEEEGRSDEVISEVIGAAARALYERELR
# B6: GBRAP_160_4393 (protein)
# chain: KEEFEKLKEEVEEIFDEAEELIKGQSPEERRVIIRVAFGEIRMEVFSNEAVTDEQEEEFDELLDKYEEEAEKAVEEGEEAVLKVLEKARKELLELIEKYE
# B7: GBRAP_83_6973 (protein)
# chain: AEEITVVTPADRIEEAVEIAIDLAKEEGYKVTLEVITEPEQLERVLEAVRRLIAEIPDVEIEVLLRGATEEQAEALLARLRAIAAELGATPTITVHLEEP
# B8: GBRAP_52_6290 (protein)
# chain: SEERVEAVVDEIVALVRAGRLDEALALAREAAREFSREEVLLLGERLIERLRELPAADLDAALEVVEALAEELERIFGDEEGASYLEARAAAAAYEALQR
# B9: GBRAP_128_3519 (protein)
# chain: SMEEAVAQVRELMAKIKEASPEEAAKLTKEIVALIEAADRETREAMVDEFIELLPELSKEKLLTIADTLRELRPSADPYVANLLADVQVEALNEAEELEE
# B10: GBRAP_78_6623 (protein)
# chain: ELEELIDKAIELLGEAAKIALKLNTPLADELLGELVDAMSDLWEAEEKGGDLELLERALKHLEKALKIAEEMGNEELKKKLEKAKELVEKAIKLVKEKKE
# B11: GBRAP_125_2984 (protein)
# chain: SMEELLEDLRLIFKALGLSEEEAEEAVQLAREHSLRQTLYALFAALGAEEVADAVAQLTEEEAEELVRELAAYIKANPDITPEEVVKKALELAKKLLAKR
# B12: GBRAP_122_2948 (protein)
# chain: AATEAELAALVEAIVAALEAGDEARLQALAARLVALFRTITPEQARAAVERLLAAVAGDEEAREAVLRALLAAFTASQPLTPAQEAAAEVVAEAFDELSE
# B13: GBRAP_35_5551 (protein)
# chain: SSDEEILKMMKATAEDLLKAVEDIPVDDLVAMATSIAKSTLEIIKQEKENKEEVKELADATLKALEAVIKKAKEEGYPEEKIEELEKLKEEIEKALKEAL
# B14: GBRAP_39_5694 (protein)
# chain: EEEEENEDVVSYLEALAAGELYKTGISLEEAYERAKKILEKYAEEHPELKELLERLIELADEKGEEAKLALIGIAVLIEEGTPEEEIKEKIERAIAYFEK
# B15: GBRAP_45_5804 (protein)
# chain: MSELDKHIKAALEELEKAKEIIEKNEEIPEEKKEKYITEIDEIIKELKANPYDAEKLDELEKRVEALLKEALADPNATAEEIEALLEAANHIAAARELLK
# B16: GBRAP_184_5219 (protein)
# chain: TTVRRSVEADTAEEAIAKANEVIAEAEAAGERLELHVFLSNMSIEEIETVMKHLAELKAEGRVESVTVHVEDERSEEEIDKLVEIADKYGIRLVIALPDE
# B17: GBRAP_11_2801 (protein)
# chain: KKEQLKKIAELAEELAKAIKKLLEAGVDDEELRAKIKELIKELKELVEKYGDEGLKKLAKIIAELFEKAQADPENAEEYFKQALAAARVLAGNVLLEIEE
# B18: GBRAP_125_3126 (protein)
# chain: ERAALLADLAELLRALGWDDEDVAEAVRLAAAHGLKGTLYAAMKAMGWDELADLVARLTEEQTAAVLREVVARLRAHPDLTPEEVRALLREVAEAAVAAA
# B19: GBRAP_48_5825 (protein)
# chain: ATPDPATLEKLVTETVEFMKEIYEEAKKEGLSREEILKMIKAELGDLALDLEEAGFTKAADYLRDRENRDETAEKLLELFDEGKWEEARDYLLEKLRAAE
# Target: GABARAP, O95166
# Experiment: median log2 fold change of GCK-ALFA target abundance (FLAG IP / Myc IP barcode read proportion) (log2 ratio); each designed protein is fused to an ALFA-tag nanobody in HEK293 cells to bring the named protein to FLAG-tagged glucokinase (GCK); Myc marks an untargeted standard; higher = target protein stabilised (more abundant)
# Details: target protein: 3xFLAG-MCP-GCK-ALFA reporter; HEK293 landing pad (RPLP)
# How it was run: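 Sequencing of reverse-transcribed, amplified circular RNA barcodes from anti-FLAG and anti-Myc immunoprecipitates provided the readout for an ALFA-nanobody-fused binder library recombined into HEK293 landing-pad cells. Those cells were induced with 2 μg mL^−1 doxycycline, transfected with a plasmid expressing a FLAG-tagged target and a Myc-tagged standard, and lysed after 48 h. Target abundance is the per-binder median log2 ratio of FLAG to Myc barcode read proportions. Only barcodes at a proportion of ≥10^−7 in both replicates and binders with ≥3 barcodes per replicate were kept, with a 10^−6 pseudocount added before the two replicates were pooled.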
# GABARAP, O95166, sequence (O95166 whole entry, the tested form may be a part): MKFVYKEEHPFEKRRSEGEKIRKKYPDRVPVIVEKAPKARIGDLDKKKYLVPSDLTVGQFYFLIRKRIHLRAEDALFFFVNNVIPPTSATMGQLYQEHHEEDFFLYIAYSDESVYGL
row,Binder,median log2 fold change
1,B1,0.302
2,B2,-0.0296
3,B3,-0.00496
4,B4,0.223
5,B5,-0.00338
6,B6,-0.22
7,B7,0.159
8,B8,-0.135
9,B9,0.152
10,B10,-0.109
11,B11,0.18
12,B12,0.0946
13,B13,0.378
14,B14,0.14
15,B15,0.361
16,B16,0.0642
17,B17,0.201
18,B18,-0.0606
19,B19,-0.257
